# The supplement of paper PMC11417369
# The other results are listed elsewhere or left out.
# System: PfHDP1 homeodomain (GST-tagged)
# Assay: gcPBM binding intensity (ln(normalized median fluorescence intensity)); higher = stronger DNA binding
# Outline: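 GST-tagged P. falciparum DNA-binding domains produced in E. coli were incubated for 1 h on an Agilent 4 × 180k array of primer-extended double-stranded 36-bp intergenic genomic probes with negative controls. Binding intensity is the highest Masliner-normalised natural-log median intensity across replicate spots of either probe orientation, with bound protein detected by Alexa488 anti-GST antibody at 488 nm.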
row,Sequence,gcPBM binding intensity (ln)
1,TTTTTTACAACACGAAAATGAACAATTATAATAAAT [TGCATGCA_negctrl_site301],6.77
2,TCACATACATTACTTACACACCATATTAAGATATAC [CACACA_site4415],6.93
3,TTTTGTATATATTATTGTACTTTTAATATAGATCGT [XGTACX_site5830],6.5
4,AAATAAATATATAATACACACAAAAATATAAAATGT [CACACA_site3711],7
5,TAATCATAAAAAAATACACACATATAAAATATAGAT [CACACA_site7020],6.47
6,AAAAGTTAAGCAACAAATTTTATTTCTTATATATAA [TGCATGCA_negctrl_site134],6.59
7,ATATTTATAAATTGCACACAAATAATAACATTATAT [CACACA_site5322],10.6
8,TCATTCCATACTTTAACACACAAATATATTTAATCC [CACACA_site145],6.82
9,ATATATATATATATATGTACATATTCACTTATATTT [XGTACX_site5324],9.45
10,TTTTTTTTTTTGTTTTGTACATAAATTGCAACCAAT [XGTACX_site8949],8
11,TAACATAAATCCATACGTACCTATATATATATAATA [XGTACX_site2626],6.58
12,ATTTATATTAAAAGTGTGCACTTTTTTTTTTTTTTT,8.1
13,GAATATTACATGTATTGTACAGGTAATGTTAAAAAT [XGTACX_site8274],6.55
14,AAAAAAAAAAAAAAAACACACATATATATTATTGTA [CACACA_site3979],6.59
15,TTTTTTGTATTTTTCACACACTCTCTATCTCTCTCA [CACACA_site2095],6.66
16,TGTAGACTACATAGTAGTACATAATATATACATATA [XGTACX_site367],6.21
17,TTTTCTTTTAAACATATATATATATATATATATATA [XGTACX_negctrl_site559],9.52
18,TATTTATTTAATTACACACGAACATATAACCATTTC [CACACA_site211],6.81
19,TATATATATATAATTACACACAATGTTCTATATATA [CACACA_site3235],8.86

row,Sequence,gcPBM binding intensity (ln)
1,ATTTCTTTGCTTTTCAAACACACAAAAGTTATTATA [CACACA_site520],6.83
2,GTTGAAAAAAAAAATGCACACGCATACATATAATAT [CACACA_site8117],9.09
3,ATAATTTTCCATATTTGTACATATTTTTTTCCCTTG [XGTACX_site8146],6.87
4,TAATGACTGAAAAATTGTACATATGTATATATGTAT [XGTACX_site2415],6.09
5,ATTCTATTATAATATTCACACACTAACGTAAATCAT [CACACA_site2750],6.73
6,TATACATACATACATACACACACACCGATATATATA [CACACA_site7896],7.14
7,CATACATACGGACACACACACATATATATATATATA [CACACA_site5598],9.34
8,ATAATGTTTCTTTCAACACACAAAAAATGAACACAT [CACACA_site1552],6.93
9,AAAAAAGAAAAAAGGACACACATAAATATACTCACG [CACACA_site2904],6.48
10,AAAAAAAAAAAATAGACCTCCTAAGCAAAAGAAAAA [GTGCAC_negctrl_site634],5.91
11,TATATAAGCGCATGCACACGCAAAGGTATATAAATA [CACACA_site622],8.78
12,AATTTAAATTAGAATTGTACTAGAAAAGGAATATAT [XGTACX_site6162],6.59
13,AATATAAATAAAAACACACACAATGGTACAGATATA [CACACA_site5930],7.05
14,AATTATATAATCTTATAACATAATATAATAACATTT [CACACA_negctrl_site187],6.22
15,TAAAAAATATTATATACACACAGTATAAAAAAAAAT [CACACA_site4012],6.5
16,TTATCCTATACAAGGGAAAAATAAAATAAAATAAAT [TGCATGCA_negctrl_site272],6.47
17,AGTGTCATATAAAATTGTACTTTTTTTTTTTTCTTT [XGTACX_site5651],6.38
18,ATATACATATTATAATGTACATATTTTAATAACCTT [XGTACX_site7617],6.39
19,ATTGATTATTTTCTAGTGCATAAAATAATTTTTTTT,8.67

row,Sequence,gcPBM binding intensity (ln)
1,TATTTATTTGTTTAAGGTACAGAACAAATTTTTATT [XGTACX_site7414],6.22
2,ATATTTATTATTATATGTACGTAACATCTTTATAAA [XGTACX_site7016],6.95
3,CATAAATACATACATACACACATATATATATATATA [CACACA_site2106],9.32
4,AAATGTTCTTAAAAATGAATAATATATATATATATA [CACACA_negctrl_site796],9.08
5,TAAGAAAGACAAAAAAAATGAAAAGAAAAAAAATGA [CACACA_negctrl_site1469],6.15
6,AAATGTTGAAAAATATGTACATATTATATATATTAT [XGTACX_site1165],6.53
7,ATTTAGAAAAAATATACACACAGCCTAAACATGCAT [CACACA_site4067],6.48
8,AATATAAGCAAATACACACACACATATATATATATA [CACACA_site3805],9.22
9,TTTTAATTTATTTATGCACACATATATAATTACACA [CACACA_site8126],10.1
10,AAAAATAAACAATATATAGTTATATATATATATATA [TGCATGCA_negctrl_site82],9.34
11,ATTATATATATGTGCACACAAAAGATATATATATAT [CACACA_site5205],11.1
12,ATATTTATTTGTTAGTGTACATACATATATATATAT [XGTACX_site1347],9.11
13,AAATAATTTACTTAATGTACATATATATATATATAT [XGTACX_site8594],9.2
14,ATGTATGTTTGTTATGCACACAAATGCATCTTATTT [CACACA_site8861],10.3
15,ATTATGTATACATAAACACACATATATATAAAAAAA [CACACA_site262],7.09
16,AAGCACAAAAAATACACACACAAAAAATAAAAAAAG [CACACA_site1840],6.82
17,TATATATATCTGTACACACACACATATAAATAAATA [CACACA_site4405],6.97
18,GAGAAATGGGGACACACACACATATTATATATATAT [CACACA_site4943],8.53
